Measured values from PubChem BioAssay AID1794842 (National Center for Advancing Translational Sciences (NCATS), 2023).
In all, about 2,800 compounds went through this assay and fewer than 10 were called active. The call rests on the fitted dose curve; in most records, active means well fitted curve in the direction sought with a large enough effect; inconclusive means small, poorly fitted or top-dose-only effect, or another doubt; inactive means no such curve, though single readings can be large or run the other way. The list shows a part of the results.

target: Metallo-beta-lactamase type 2 (Klebsiella pneumoniae) (UniProt C7C422); experiment: qHTS to identify inhibitors of the New Delhi Metallo-beta-lactamase (NDM): Meropenem screen against the machine-based learning selections.; further: % of control where 0% means no effect; details: Purified NDM-1, meropenem hydrolysis, absorbance 300 nm; at 38.4 µM (top of the series) unless noted
In short: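 NDM-1 (2 nM final) in 50 mM HEPES pH 7.0, 1 uM Zn2SO4, 0.01% Tween20 was preincubated with compounds for >30 min. Nitrocefin (16.7 uM final) was read at 485 nm after 15 min, and meropenem (50 uM final) at 300 nm after 30 min.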

Chain of UniProt C7C422 (C7C422 whole entry, looked up): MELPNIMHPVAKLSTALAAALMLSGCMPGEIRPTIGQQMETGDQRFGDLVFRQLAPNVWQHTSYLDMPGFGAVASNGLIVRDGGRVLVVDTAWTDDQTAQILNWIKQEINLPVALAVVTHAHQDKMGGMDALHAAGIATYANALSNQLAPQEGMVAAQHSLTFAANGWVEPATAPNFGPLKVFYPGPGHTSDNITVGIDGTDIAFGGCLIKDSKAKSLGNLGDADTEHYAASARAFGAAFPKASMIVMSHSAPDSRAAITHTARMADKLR

SMILES	activity change, negative = inhibition
Oc1ccccc1CN1CCNc2cnc(OCc3cccnc3)cc2C1	inactive: 10.5% [at 57.5 µM]
O=C(Cc1ccc(F)cc1)N1CCc2nc(C3CC3)nc(-c3ccc(Cl)cc3)c2C1	inactive: 1.12%
O=C(N[C@H]1CCN2C(=O)c3cc(-c4ccc5c(c4)OCO5)ccc3NC(=O)[C@H]12)C1CCCC1	inactive: 1.5%
COc1ccc(CNC(=O)CC[C@H]2CNC(=O)[C@@H]3[C@@H](CCN3Cc3ncc[nH]3)N2C)cc1	inactive: 15.4%
COc1c(F)cc(CNCC2(O)CCCNC2)cc1F (stereo not given)	inactive: 21.5%
CCN(CC)C(=O)[C@@H]1CCC[C@@H](NC(=O)c2ccc(C#N)cc2)CN(C)C(=O)C1	inactive: 0.646% [at 57.5 µM]
O=C1CCCCCN1CC(=O)N1CCCC(OCc2ccccc2)C1 (stereo not given)	inactive: 1.7%
OC(c1ccc2c(c1)CCO2)c1nc(Nc2cccc(C(F)(F)F)c2)n[nH]1 (stereo not given)	inactive: 1.18% [at 57.5 µM]
Cc1cc(C)n2nc(CC(=O)N[C@H](c3ccccn3)C3CC(O)C3)nc2n1 (stereo not given in full)	inactive: 61.9%
O=C(N[C@H](Cc1ccccn1)C1CC(O)C1)c1n[nH]c2c1CCCC2 (stereo not given in full)	inactive: 34.8%
COc1ccc(N2C(=O)[C@@H]3[C@@H](CCN3C(=O)C(C)(C)C)N(Cc3ccccc3)C2=O)cc1	inactive: -0.403% [at 57.5 µM]
COc1ccccc1C(O)c1nc(Nc2ccc(Cl)cc2F)n[nH]1 (stereo not given)	inactive: 1.38% [at 57.5 µM]
CN1CCC(C2CCN(C(=O)NC3CCCC3)C2)CC1 (stereo not given)	inactive: -1.47%
CCS(=O)(=O)N1CCC(Cc2nc(-c3cccnc3)n[nH]2)C1 (stereo not given)	inactive: 0.912%
C=CCC1(CO)CCCN(CCS(=O)(=O)c2ccccc2)C1 (stereo not given)	inactive: -1.58%
O=C(Cc1ccccc1O)N1CCCC(CCc2c(F)cccc2F)C1 (stereo not given)	inactive: 1.93%
O=C(COc1ccccc1)NC[C@H]1Cn2c(-c3ccc(Cl)cc3)cnc2CO1	inactive: 7.23% [at 57.5 µM]
CN(CCCc1cnn(C)c1)C(=O)C1CNCCO1 (stereo not given)	inactive: 34.3%
CN(C)c1ccc(CN[C@H]2C[C@H]3C(=O)NC[C@@H](CCC(=O)N4CCC(O)CC4)N3C2)cc1	inactive: 6.56%
COc1ccc(OCc2nc(C(=O)N3CCCC(C(C)(C)O)C3)co2)cc1 (stereo not given)	inactive: 0.798%
Cn1cc(-c2cnc(NC(=O)c3c[nH]c4ccccc34)c3c2CCO3)cn1	inactive: 6.8% [at 57.5 µM]
Cc1ccccc1-c1nccn2c(C3CN(Cc4ccccc4O)C3)ncc12	inactive: 4.1% [at 57.5 µM]
OCC1(CC2CC2)CCCN(c2nccc(C(F)(F)F)n2)C1 (stereo not given)	inactive: 1.97%
CC(=O)c1sccc1-c1cc(NCc2ccccn2)nc2[nH]ccc12	inactive: 3.92%
COc1ccc(-c2noc(C(=O)NC3CCC3)c2[C@H](C)O)cc1	inactive: 0.792% [at 57.5 µM]
CC(C)NC(=O)N[C@H]1CCN2C(=O)c3cc(-c4ccc(F)cc4F)ccc3NC(=O)[C@H]12	inactive: -3.79% [at 57.5 µM]
O=C1[C@@H]2[C@@H](CCN2C(=O)NC2CCCCC2)N(Cc2cccs2)C(=O)N1c1cccc(F)c1	inactive: -0.596%

SMILES	activity change, negative = inhibition
O=C1COc2ccc(-c3ccsc3)nc2CN1	inactive: 17.5% [at 76.7 µM]
Cc1noc([C@@H](C)NC(=O)Cc2ccccc2)c1C(=O)O	inactive: -2.43% [at 76.7 µM]
C[C@H]1[C@@H]2[C@@H](O)C([C@H](C)C(=O)NCc3ccccn3)CC[C@@]2(C)CC[C@@H]1NC(=O)c1ccc(C#N)cc1 (stereo not given in full)	inactive: 2.59%
COCCNS(=O)(=O)c1cc(C(=O)O)cc(-c2cccc3cccnc23)c1	inactive: 4.91%
O=C(NC[C@H]1OC[C@@H](NCc2ccccc2O)[C@@H]1O)Nc1ccccc1	inactive: 1.63% [at 57.5 µM]
O=C1CC2CCCC(C1)N2C(=O)c1cccc(Br)c1	inactive: 0.993% [at 57.5 µM]
COc1ccc(-c2nc3ccncc3[nH]2)cc1	inactive: 21.9% [at 76.7 µM]
CN1C[C@@H](NC(=O)c2ccc(C(C)(C)C)cc2)C[C@H]1c1nc(-c2ccc3c(c2)OCO3)no1	inactive: 1.12%
Cc1ccc2c(c1)nc1n2[C@@H](CNCc2nccn2C)COC1	inactive: 4.93% [at 57.5 µM]
O=C(N[C@H]1C[C@@H]2C(=O)N[C@H]3CCN(C(=O)c4cccs4)[C@@H]3C(=O)N2C1)C1CCCC1	inactive: 1.42% [at 57.5 µM]
CCc1cc(C(=O)NCc2cc3n(n2)CCCN(S(C)(=O)=O)C3)cs1	inactive: 1.85%
CCN(CC)C(=O)C[C@@H]1c2nc(NC(=O)N3CCOCC3)sc2C[C@@H]2[C@](C)(CO)[C@H](O)CC[C@]21C	inactive: 6.26%
CC(C)(O)CCc1cccc(C(=O)N[C@H]2CCC[C@H]2C(N)=O)c1	inactive: -0.412%
COC(=O)[C@H]1CN(C(C)=O)CCN1C(C)=O	inactive: -0.0382% [at 76.7 µM]
COc1ccc(C(=O)Nc2ccc(-c3noc([C@@H]4CCCN4CCCc4ccccc4)n3)cn2)cc1	inactive: 12%
O=C(Cc1c[nH]c2ncc(-c3cccc(OC(F)(F)F)c3)cc12)NCc1cccnc1	inactive: 5.42% [at 57.5 µM]
CN(Cc1cc(-c2ccccc2)n[nH]1)c1cc(C2CC(N)C2)ncn1 (stereo not given)	inactive: 47.7%
CCNc1ncc(CN2CCC(N)(C(=O)O)C2)cn1 (stereo not given)	inactive: 34.4%
CCCC(c1cccs1)n1cc(-c2cncnc2)nn1 (stereo not given)	inactive: -2.5%
COc1c(C)cccc1-c1nc(C2CCOC2)no1 (stereo not given)	inactive: 2.81%
CC1=C[C@@H](CNC(=O)COCC(=O)O)[C@H](C(C)C)C[C@H]1Cc1nc2ccc(C)cc2[nH]1	inactive: 41.1% [at 57.5 µM]
COc1ccccc1-n1cc(C(=O)NC[C@@H]2C[C@H](F)CN2)cn1	inactive: 23.1%
CC1=C[C@@H](CNCCN(C)C)[C@H](C(C)C)C[C@H]1Cc1nnc(C(C)(C)C)o1	inactive: -0.442% [at 57.5 µM]
Cn1cccc1C(=O)C(=O)N1CCC(O)(CN2CCOCC2)C(C)(C)C1 (stereo not given)	inactive: 9.53%
c1cncc(CN2CCC[C@H]2c2nc(-c3ccc(-n4ccnc4)nc3)no2)c1	inactive: 10.8% [at 57.5 µM]
O=C(Cc1c[nH]c2ncc(-c3ccccc3)cc12)NC1CC1	inactive: 6.19% [at 76.7 µM]
CC(C)CNC(=O)N1CCC(Nc2cccnc2)C1 (stereo not given)	inactive: 13.4%

SMILES	activity change, negative = inhibition
O=C1CCCCC(C(=O)N2CCOCC2)N1 (stereo not given)	inactive: -0.459%
O=C(N1CCC2(CCCCO2)CC1)C1(c2ccccc2)CC1	inactive: 0.46%
COCC(=O)N1C[C@@H]2C[C@H]1C(=O)N(Cc1ccccn1)c1ccccc1O2	inactive: 0.478% [at 57.5 µM]
OC(c1cccc(C(F)(F)F)c1)c1nc(Nc2ccc(F)cc2)n[nH]1 (stereo not given)	inactive: 1.24% [at 57.5 µM]
COc1cccc(-c2cc(C(=O)NCCNc3nc(C)cc(=O)[nH]3)[nH]n2)c1	inactive: 5.51%
O=C(NC1CCCCC1)O[C@@H]1CO[C@H]2[C@@H]1OC[C@@H]2n1nnnc1-c1ccc2c(c1)OCCO2	inactive: -0.38%
O=c1cc(-c2ccncc2)oc2c(-c3cccc(O)c3)nccc12	inactive: 8.96% [at 57.5 µM]
COc1ccc(-c2[nH]nc3ncc(-c4ccccc4O)nc23)cc1F	inactive: -1.39% [at 57.5 µM]
Cc1nc(CCC(=O)N2CCC(Cc3ccc(C(=O)O)cc3)C2)n[nH]1 (stereo not given)	inactive: 5.45%
CCCN(CC1CCOC1)C(=O)Nc1cccc(F)c1C (stereo not given)	inactive: 0.745%
Cn1c(COc2cccc(C(F)(F)F)c2Cl)nnc1C1CC(N)C1 (stereo not given)	inactive: -0.252%
Cc1ccc2c(c1)c(Cn1cnc(-c3ccccc3)c1-c1cnc[nH]1)nn2C	inactive: 3.94%
CN(Cc1ccccc1)Cc1cn([C@H]2CO[C@H]3[C@@H]2OC[C@@H]3NCc2ccccc2)nn1	inactive: 0.49% [at 57.5 µM]
CCCC1(CO)CCCN(CC(=O)NC(C)(C)CC)C1 (stereo not given)	inactive: 1.66%
COc1ccc(CN2CC3(CCN(C(=O)Cc4c[nH]c5ccccc45)CC3)C2=O)cc1	inactive: -1.03%
O=C(O)CN1CCC[C@]2(C(=O)O)CN(Cc3cccc(O)c3)CC[C@@H]12	inactive: 67.1%
C=CCCC(CN1CCCOCC1)Oc1ccc(-c2ccccc2)nn1 (stereo not given)	inactive: -1.94%
Cc1nc(C)c(C(=O)NCC(=O)N2CCCCCNC(=O)CC2c2ccccc2)s1 (stereo not given)	inactive: 0.419%
Cc1noc2c(Nc3ccc(C(N)=O)cc3)cc(-c3ccsc3)nc12	inactive: 6.78% [at 57.5 µM]
COc1ccc(NC2CCCN(C(=O)c3ccc(S(N)(=O)=O)cc3)C2)cc1 (stereo not given)	inactive: -0.314%
COc1ccc(CN[C@H]2[C@H](O)[C@@H](N(C)CCc3ccccn3)[C@@H]3OC[C@H]2O3)cc1	inactive: -0.0233% [at 57.5 µM]
CN(Cc1ccc(F)cc1)c1ccc2ncc(Nc3cccc(N[S+](C)(=O)[O-])c3)n2n1	inactive: 19.9%
Cc1nc(C2CCCCN2C(=O)Cc2ccccc2)n[nH]1 (stereo not given)	inactive: -0.508%
O=C1N(CCCCOc2ccccc2)c2ccccc2NC12CCNCC2	inactive: -2.04%
CN1C[C@H](NCC2CC2)CCC[C@@H](C(=O)NCc2cc(F)cc(F)c2)CC1=O	inactive: 1.42% [at 57.5 µM]
COc1ccc(CNC(=O)C[C@@H]2C[C@H]3O[C@H](CNC4CCNCC4)[C@@H](O)[C@H]3O2)cc1	inactive: 12.7% [at 57.5 µM]
